Assay results taken from article PMC12040169 (PLOS Biology, 2025).
The list shows a part of the results.

What follows are molecules tested on T1, C. trachomatis L2/434/Bu expressing GFP (CTL2-GFP). Conditions: total inclusion area; 28.5 h, 10 µM; inhibitor.
T1 construct: L2/434/Bu GFP intracellular growth in HeLa cells
Set-up: species or system HeLa; C. trachomatis total inclusion area by high-content imaging, normalised to DMSO
How it was run: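 High-content imaging followed the bulk GFP/resorufin measurement: fixed, Hoechst-stained cells were scored for GFP inclusions and host nuclei per well. Total inclusion area and count served as growth proxies, nuclei number as the viability proxy. MIC calculation matched the bulk assay.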
Cc1ccc(NC(=O)c2cc(N3C(=O)c4ccc(C(=O)O)cc4C3=O)ccc2N2CCCCC2)cc1 [CBK265274] was tested, and the “% of control remaining” value was 104.862.
With O=C(c1cc[nH]c1)N1CCCC2(CCN(C(=O)c3ccoc3)C2)C1 (centres unmarked) [CBK131629] the “% of control remaining” value was 78.3708.
O=C(CCOc1ccc(F)cc1)Nc1cnc(-c2ccc(F)cc2)c(-c2ccoc2)n1 [CBK037166] was tested, and the “% of control remaining” value was 94.6772.
CCc1nn(C)cc1CNC1CCCN(c2ccc(C#N)cc2)C1=O (centres unmarked) [CBK304176] was tested, and the “% of control remaining” value was 37.1038.
For Cc1ccc(CN2CCC(N3C(=O)NC4(CCN(CC(C)C)CC4)C3=O)CC2)cc1C [CBK285822], the “% of control remaining” value was 93.8188.
Cc1ccccc1OCCCn1cncc1-c1cn(C)nc1C [CBK281813] was tested, and the “% of control remaining” value was 106.8.
O=C(c1c[nH]c2ccccc12)C(O)C(c1ccccc1)N1CCOCC1 (centres unmarked) [CBK267802] was tested, and the “% of control remaining” value was 103.656.
In the case of COc1ccc([C@@]23CC[C@@H](NC(=O)c4ccc(SC(F)(F)F)cc4)C[C@@H]2N(C)CC3)cc1OC [CBK076654T], the “% of control remaining” value is reported as 98.0483.
CN1CCOc2cc(S(=O)(=O)Nc3cccc(-c4cnco4)c3)ccc21 [CBK067119] was tested, and the “% of control remaining” value was 87.8861.
For CC(=O)Nc1ccc([C@@H](O)[C@H]2COCC(=O)N2C)cc1 [CBK289059], the “% of control remaining” value was 138.925.
In the case of CC(C)NC(=O)N[C@H]1CCN2C(=O)c3cc(-c4ccc(F)cc4F)ccc3NC(=O)[C@H]12 [CBK289346], the “% of control remaining” value is reported as 102.711.
CCN(CCO)C(=O)c1coc(COc2ccc3sc(C)nc3c2)n1 [CBK307321] was tested, and the “% of control remaining” value was 95.773.
In the case of CC(=O)N(C)[C@H]1CC[C@]2(CC1)CNC(=O)c1cc(C)ccc1O2 [CBK281690], the “% of control remaining” value is reported as 91.3876.
OC(COc1ccc(OC(F)(F)F)cc1)CN1CCN(c2nc3ccc(Cl)cc3s2)CC1 (centres unmarked) [CBK074639] was tested, and the “% of control remaining” value was 81.4011.
With COc1ccc(C(=O)Nc2ccccc2)cc1S(=O)(=O)Nc1cccnc1 [CBK266771] the “% of control remaining” value was 101.901.
In the case of O=C(O)c1cc(NCc2ccccc2)ccc1N1CCOCC1 [CBK287099], the “% of control remaining” value is reported as 105.871.
With CS(=O)(=O)N1CCc2cc(S(=O)(=O)NCCc3c[nH]c4ccccc34)ccc21 [CBK268487] the “% of control remaining” value was 103.121.
O=C(/C=C/c1cn(C2OC(CO)C(O)C2O)c(=O)[nH]c1=O)NCCCCCCNC(=O)C(F)(F)F (centres unmarked) [CBK201231] was tested, and the “% of control remaining” value was 147.703.
In the case of O=C(c1ccc2ncsc2c1)N1CCN(S(=O)(=O)c2ccc(C(F)(F)F)cc2)CC1 [CBK295285], the “% of control remaining” value is reported as 94.0044.
For O=C(O)c1ccc(NC(=O)c2cc(S(=O)(=O)N3CCCCC3)cs2)cc1 [CBK265722], the “% of control remaining” value was 102.126.
